The assay relates to BDF1 mice, Lymphoma 8 ip, survival T/C. In words: NCI In Vivo Anticancer Drug Screen. Data for tumor model Lymphoma 8 (intraperitoneal) in B6D2F1 (BDF1) mice. The note with it: endpoint: survival time, mean or median; dose: 50.0 mg/kg/injection; schedule: Q01DX008 (ip); vehicle: saline; higher = longer survival. The method, then:
The antitumor activity of compounds was measured in mice bearing transplantable tumors. Survival or tumor size were measured and the results are expressed as the measurement made in the treated group (T) divided by the measurement made in the vehicle treated control group (C). The tumor model used in this assay is Lymphoma 8 (intraperitoneal) in B6D2F1 (BDF1) mice

Toxic doses and inconclusive results are not listed. The source holds more than one record for some entries. This is not the full list of results. The source may hold further records. Values given together are repeats in other runs, samples, wells, individuals or studies.

With `CN(N=O)C(=O)N[C@@H](C=O)[C@@H](O)[C@H](O)[C@H](O)CO`, the T/C is 119 % of control and 151 % of control.

The values above are taken from PubChem BioAssay AID242 (DTP/NCI, 2004).
